This is one part of the list.
system: T1, C. trachomatis L2/434/Bu expressing GFP (CTL2-GFP); design: species or system HeLa; C. trachomatis total inclusion area by high-content imaging, normalised to DMSO; conditions: total inclusion area; 28.5 h, 10 µM; inhibitor
T1 construct: L2/434/Bu GFP intracellular growth in HeLa cells
How it was run: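 High-content images of fixed, Hoechst-stained infected cultures supply inclusion area and count (growth) plus nuclei number (viability), complementing bulk GFP/resorufin fluorescence. MIC determination is unchanged from the primary assay.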

Row | Compound | % of control remaining
1 | CC(=O)c1sc(NC(=O)c2ccc(Br)o2)nc1C [CBK057948] | 70.6291
2 | COc1ccc(C2(C(=O)NCc3ccc4c(c3)OCO4)CC2)cc1 [CBK149829] | 71.2623
3 | CSc1nc(NC(=O)c2ccoc2)cc(N2CCNCC2)n1 [CBK050314T] | 75.6818
4 | O=C(O)c1ccc(C(=O)Nc2cccc(NC(=O)C3CCCO3)c2)cc1 (stereo not drawn) [CBK268613] | 102.298
5 | FC(F)(F)c1ccnc(OCCN2CCOCC2)c1 [CBK113286] | 94.8644
6 | COc1cc(C(=O)N2CCN(C(=O)CC(C)C)CC2)cc(OC)c1OC [CBK003604] | 32.461
7 | CC(=O)c1ccc(C(=O)N2CCC3(CC2)CC(=O)c2ccc4ccccc4c2O3)cc1 [CBK156458] | 96.1377
8 | CN(C)CCN(C)Cc1ccc2ccc3cccc4ccc1c2c34 [CBK261860] | 109.43
9 | O=c1c2cc(F)ccc2nc2n1CCN(Cc1cccs1)CC2 [CBK284859] | 88.6206
10 | Cc1cccnc1C(Cc1ccsc1)NC(=O)CCc1ccno1 (stereo not drawn) [CBK284804] | 117.943
11 | O=C(Cn1cnc2ccc(F)cc2c1=O)N1CCOC2CCCCC21 (stereo not drawn) [CBK253316] | 88.3604
12 | O=C(c1ccccc1[N+](=O)[O-])n1nc(-c2cccnc2)nc1NCc1cccs1 [CBK269094] | 89.0847
13 | COc1ccc(C)cc1CC(=O)N1CCc2c(sc3ncnc(N)c23)C1 [CBK305878] | 41.9646
14 | CCCCOc1ccc2c(C(F)(F)F)cc(=O)oc2c1 [CBK097821] | 76.5836
15 | CCc1nnc(SCC(=O)Nc2cccc(OC)c2)[nH]1 [CBK270226] | 111.754
16 | O=C(O)c1c2c(nc3ccccc13)C(=Cc1ccc3c(c1)OCCO3)CC2 [CBK297479] | 79.7756
17 | COCC(=O)N1CCN2C(=O)N(Cc3ccccc3)C(=O)[C@H]2C1 [CBK289641] | 69.531
18 | Cc1cc(C(=O)N2CCc3c(sc4ncnc(N)c34)C2)on1 [CBK306067] | 32.5897
19 | Cn1cc(-c2nc(C3COCCN3Cc3c(F)cccc3Cl)no2)cn1 (stereo not drawn) [CBK305441] | 76.2287
20 | CCOc1ccccc1CN1CC2CCCN2C[C@@H]1C (stereo partly drawn) [CBK285435] | 107.039
21 | CC(C)(C)c1cc(CCCOC(=O)CNc2ccccc2)cc(C(C)(C)C)c1O [CBK261939] | 78.4539

Row | Compound | % of control remaining
22 | Cc1nc2c3ccccc3nc(SCC(=O)Nc3ccccc3)n2n1 [CBK295205] | 11.3025
23 | CN(C)CCN(C)C(=O)C1CCN(c2cncc(-c3ccc(O)cc3)n2)CC1 [CBK126928T] | 101.024
24 | N#Cc1cn(S(=O)(=O)c2cccc(C(F)(F)F)c2)nc1N [CBK067225] | 52.2372
25 | Cn1ccnc1C1(O)CC2CCC(C1)N2C(=O)C1CCCC1 (stereo not drawn) [CBK284052] | 85.5954
26 | Cc1cnn(CC(=O)N2CCCC(COc3ccccc3F)C2)c1 (stereo not drawn) [CBK281999] | 115.356
27 | Cc1ccc(S(=O)(=O)N(C)c2ccnc(N3CCNCC3)n2)cc1 [CBK200009] | 92.3796
28 | O=c1[nH]c2ncc(-c3cccc4ncccc34)nc2n1C1CCCCC1 [CBK064861] | 84.615
29 | O=C1NCC(C(=O)N2CCC3(CC2)CC(=O)c2cc(Br)ccc2O3)N1 (stereo not drawn) [CBK156475] | 99.4606
30 | O=[N+]([O-])c1ccc(CN2CCN(c3nccnc3OCC3COc4ccccc4O3)CC2)cc1 (stereo not drawn) [CBK082791T] | 67.3905
31 | CCOc1ccc(NC(=O)N(C)Cc2noc(CC(C)C)n2)cc1C#N [CBK307089] | 61.1701
32 | O=C(O)CC1SC(=O)N(c2ccccc2)C1=O (stereo not drawn) [CBK287085] | 112.067
33 | Cn1nccc1CN1CCC(Oc2ccccc2F)CC1 [CBK281618] | 101.336
34 | Cn1c(SCC(=O)c2ccccc2)nc2ccccc2c1=O [CBK055260] | 107.214
35 | COc1ccc(-n2ncc3c2CC(C)(C)CC3NC(=O)C2CC2)cc1 (stereo not drawn) [CBK282337] | 100.605
36 | COc1ccc(C(=O)C2=C(O)C(=O)N(CCCN(C)C)C2c2ccc(Cl)c(Cl)c2)cc1 (stereo not drawn) [CBK264723] | 99.5516
37 | O=C1COc2ccccc2CCCCC2(CCCN(C(=O)CN3CCCC3=O)C2)CN1 (stereo not drawn) [CBK291992] | 109.408
38 | O=C(N/N=C/c1c(F)cccc1Cl)c1ccccc1O [CBK261815] | 82.4882
39 | CCN(c1cc(N2CCCNCC2)ccc1NS(=O)(=O)c1cccc2cccnc12)S(C)(=O)=O [CBK000014C] | 46.6131
40 | O=C(O)c1cc(-c2cc(Cl)ccc2Cl)nc2ccccc12 [CBK265391] | 115.784
41 | Cc1sc2nc(SCc3nc4ccccc4[nH]3)n(-c3ccc(Cl)c(Cl)c3)c(=O)c2c1C [CBK264594] | 96.6567
42 | Cc1cc(C#N)ccc1OCC(=O)NC1CCS(=O)(=O)C1 (stereo not drawn) [CBK305816] | 85.1145

Row | Compound | % of control remaining
43 | Nc1c(-c2ccsc2)cnc2ncccc12 [CBK083707] | 108.881
44 | Cc1ccc(C(=O)NCCCNC(=O)c2ccncc2)cc1 [CBK269477] | 108.373
45 | Fc1cccc2sc(Nc3nc(-c4cccs4)cs3)nc12 [CBK287476] | 88.4292
46 | Cc1cccc(=O)n1CCCNc1cc(C2CCOC2)ncn1 (stereo not drawn) [CBK306992] | 99.5629
47 | COCCSc1nc2c(c(=O)[nH]c(=O)n2C)n1CCCc1ccccc1 [CBK140504] | 110.178
48 | CCNc1nnc(-c2c(Cl)c(C)nn2C)s1 [CBK288014] | 114.724
49 | NC(=O)c1c(NC(=O)CSc2ccc(Cl)cc2)sc2c1CCCC2 [CBK263101] | 106.309
50 | COC(=O)CCC(=O)N1CCCC2(CCN(C(=O)c3ccoc3)C2)C1 (stereo not drawn) [CBK160988] | 100.363
51 | NC(=O)C1CCN(C2=NC(=O)/C(=C/c3cn(-c4ccccc4)nc3-c3cccs3)S2)CC1 [CBK265179] | 113.727
52 | O=S(=O)(Nc1ccc(C(O)(C(F)(F)F)C(F)(F)F)cc1)c1ccc(N2CCOCC2)nc1 [CBK062100] | 70.8688
53 | OC1(Cn2cnc3ccccc32)CCN(Cc2ccccc2F)CC1 [CBK284662] | 105.21
54 | Cc1cc(C)c2c(O)nc(SCC(=O)c3ccc(F)c(C)c3)nc2n1 [CBK266087] | 137.958
55 | CCNC(=O)c1cc2c(=O)n3cc(C)ccc3nc2n(Cc2ccco2)c1=N [CBK265312] | 120.131
56 | Cc1ccc2nc(C)cc(NC(=O)c3ccncc3)c2c1 [CBK287801] | 81.7395
57 | COc1ccc(C(=O)CC(SCC(NC(C)=O)C(=O)O)c2ccc(Cl)cc2)cc1OC (stereo not drawn) [CBK296109] | 65.5741
58 | O=C(CNS(=O)(=O)c1cc(Br)c(Cl)s1)N1CCOCC1 [CBK034474] | 85.3072
59 | COc1ccc(OC)c(NC(=O)CSc2nnc(-c3ccc(F)cc3)n2C)c1 [CBK266073] | 115.729
60 | CC1CCCCN1C(=O)CN1C(=O)N2CCCN=C2c2ccccc21 (stereo not drawn) [CBK284393] | 90.0792
61 | CCOc1cc(N2CCOCC2)c(OCC)cc1NC(=O)CSc1ccccc1C(=O)O [CBK296107] | 66.9645
62 | Cc1ccc(NC(=O)CCCn2cc([N+](=O)[O-])cn2)cc1Cl [CBK268485] | 99.1676
63 | COc1ccc(-c2cc(C(=O)O)nn2C2CCS(=O)(=O)C2)cc1 (stereo not drawn) [CBK286990] | 116.759

Row | Compound | % of control remaining
64 | NC(=O)c1csc(-c2ccc(F)cc2F)n1 [CBK067749] | 57.6473
65 | COc1cc2c(cc1OC)CN(Cc1ccccc1[N+](=O)[O-])CC2 [CBK261535] | 103.284
66 | CCc1nc(CN2CCN(C(=O)Nc3ccccc3C)CC2)cs1 [CBK305817] | 64.8873
67 | CC1CCc2c(sc3ncn(C4CCNCC4)c(=O)c23)C1 (stereo not drawn) [CBK282349] | 64.7442
68 | O=C(Cn1c(=O)oc2ccccc21)Nc1cccc(C(=O)O)c1 [CBK267641] | 96.6789
69 | CC(=O)Nc1ccc(NC(=O)[C@H]2CCCC[C@H]2C(=O)O)cc1 [CBK287073] | 112.43
70 | Cc1cccc(NC(=O)CCC(=O)N/N=C/c2cccnc2)c1 [CBK262023] | 71.8139
71 | CCOC(=O)C(NS(=O)(=O)c1ccc(NC(C)=O)c(Cl)c1)C(=O)OCC [CBK043996] | 106.221
72 | Cc1ccc(S(=O)(=O)NC(C)(C)C(=O)O)cc1 [CBK263840] | 99.1724
73 | O=C(O)CCCn1cc(NC(=O)c2c(F)cccc2F)cn1 [CBK269941] | 101.474
74 | CC1(C)CN(c2ccc(S(N)(=O)=O)cc2)C1=O [CBK020416] | 70.8971
75 | CC(C)(C)N=C1c2nn(Cc3ccccc3)nc2C(=NC(C)(C)C)c2nn(Cc3ccccc3)nc21 [CBK261070] | 82.4976
76 | CC(C)(C)c1ccc(OCCCC(=O)Nc2ccc(N3CCOCC3)cc2)cc1 [CBK264783] | 102.968
77 | O=c1[nH]cc(-c2ccc(F)cc2)cc1CNCc1ccc(F)cc1 [CBK284695] | 101.26
78 | COc1ccc(C(=O)C2=C(O)C(=O)N(CCN3CCOCC3)C2c2ccc(O)c(OC)c2)c(C)c1 (stereo not drawn) [CBK264858] | 122.311
79 | CC(O)CNCCNCc1cccs1 (stereo not drawn) [CBK278279C] | 102.943
80 | C=CCn1c(-c2sc(NC(=O)Cn3c(=O)n(CCC)c4ccccc43)nc2C)n[nH]c1=S [CBK297890] | 116.377
81 | CCCc1[nH]nc(O)c1C(=O)c1c(Cl)cccc1Cl [CBK093553] | 90.5156

— PMC12040169 (PLOS Biology, 2025)
